Test results from the supplement of paper PMC4604168 (melanoma cell lines).
The list shows a part of the results. Most values come without repeats; read them as rough.

Columns and labels:
Assay in all cases: cell count relative to DMSO control; melanoma cells; higher = more viable cells
Settings in all cases: library dose: standard library concentration; 72 h
[1] = test system: A101D
[2] = test system: A2058
[3] = test system: A375
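Note: cells treated in 1,536-well plates, then fixed and DAPI-stained, with nuclei counted from automated high-throughput microscope images.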

Row | SMILES | cell count [1] [%] | cell count [2] [%] | cell count [3] [%]
1 | Cn1cc(C2=C(c3cn(C4CCN(Cc5ccccn5)CC4)c4ccccc34)C(=O)NC2=O)c2ccccc21 [Enzastaurin] + Nc1cccc2c1CN(C1CCC(=O)NC1=O)C2=O [lenalidomide] (first compound 4 µM, partner dose 5 µM) | 96.5 | 84.8 | 82.5
2 | N.N.[Cl][Pt][Cl] [cisplatin] + Cc1cc(N2CCOCC2)cc2[nH]c(-c3c(NC[C@@H](O)c4cccc(Cl)c4)cc[nH]c3=O)nc12 [BMS536924] (first compound 8 µM, partner dose 1 µM) | 63.7 | 91.9 | 99.3
3 | Cn1cc(C2=C(c3cn(C4CCN(Cc5ccccn5)CC4)c4ccccc34)C(=O)NC2=O)c2ccccc21 [Enzastaurin] + CS(=O)(=O)c1ccc(C(=O)Nc2ccc(Cl)c(-c3ccccn3)c2)c(Cl)c1 [vismodegib] (first compound 4 µM, partner dose 5 µM) | 68.1 | 72.1 | 94.4
4 | C[C@]12O[C@H](C[C@]1(O)CO)n1c3ccccc3c3c4c(c5c6ccccc6n2c5c31)CNC4=O [Lestaurtinib] + Cn1cncc1[C@@](N)(c1ccc(Cl)cc1)c1ccc2c(c1)c(-c1cccc(Cl)c1)cc(=O)n2C [tipifarnib] (first compound 0.02 µM, partner dose 0.05 µM) | 61.9 | 81.3 | 89.7
5 | C[As](C)SC[C@H](NC(=O)CC[C@H](N)C(=O)O)C(=O)NCC(=O)O [Darinaparsin] + COc1ccc(-c2ccc3c(N4CCOCC4)nc(N4C[C@@H](C)O[C@@H](C)C4)nc3n2)cc1CO [KU0063794] (first compound 2 µM, partner dose 0.1 µM) | 102 | 69.5 | 95.7
6 | N.N.[Cl][Pt][Cl] [cisplatin] + C=CCNC1=C2C[C@@H](C)C[C@H](OC)[C@H](O)[C@@H](C)/C=C(\C)[C@H](OC(N)=O)[C@@H](OC)/C=C\C=C(/C)C(=O)NC(=CC1=O)C2=O [Tanespimycin] (first compound 8 µM, partner dose 0.01 µM) | 69.7 | 71.6 | 110
7 | C[As](C)SC[C@H](NC(=O)CC[C@H](N)C(=O)O)C(=O)NCC(=O)O [Darinaparsin] + OCCn1cc(-c2cnc3nnn(Cc4ccc5ncccc5c4)c3n2)cn1 [PF04217903] (first compound 2 µM, partner dose 5 µM) | 86.4 | 76.7 | 81.1
8 | C[As](C)SC[C@H](NC(=O)CC[C@H](N)C(=O)O)C(=O)NCC(=O)O [Darinaparsin] + Cc1cc(N2CCOCC2)cc2[nH]c(-c3c(NC[C@@H](O)c4cccc(Cl)c4)cc[nH]c3=O)nc12 [BMS536924] (first compound 2 µM, partner dose 1 µM) | 81.6 | 83.4 | 90
9 | Cn1cc(C2=C(c3cn(C4CCN(Cc5ccccn5)CC4)c4ccccc34)C(=O)NC2=O)c2ccccc21 [Enzastaurin] + CO[C@@H]1[C@H](N(C)C(=O)c2ccccc2)C[C@H]2O[C@]1(C)n1c3ccccc3c3c4c(c5c6ccccc6n2c5c31)C(=O)NC4 [Midostaurin] (first compound 4 µM, partner dose 0.4 µM) | 60.5 | 40.5 | 73.8
10 | C[C@]12O[C@H](C[C@]1(O)CO)n1c3ccccc3c3c4c(c5c6ccccc6n2c5c31)CNC4=O [Lestaurtinib] + COc1cc(Nc2ncc(F)c(Nc3ccc4c(n3)NC(=O)C(C)(C)O4)n2)cc(OC)c1OC [Tamatinib] (first compound 0.02 µM, partner dose 2 µM) | 27.9 | 121 | 113
11 | Cn1cc(C2=C(c3cn(C4CCN(Cc5ccccn5)CC4)c4ccccc34)C(=O)NC2=O)c2ccccc21 [Enzastaurin] + CCN(CC)CCNC(=O)c1c(C)[nH]c(/C=C2\C(=O)Nc3ccc(F)cc32)c1C [sunitinib] (first compound 4 µM, partner dose 2 µM) | 83 | 52.5 | 81.5
12 | C[C@]12O[C@H](C[C@]1(O)CO)n1c3ccccc3c3c4c(c5c6ccccc6n2c5c31)CNC4=O [Lestaurtinib] + Cc1nc(Nc2ncc(C(=O)Nc3c(C)cccc3Cl)s2)cc(N2CCN(CCO)CC2)n1 [dasatanib] (first compound 0.02 µM, partner dose 0.02 µM) | 67.9 | 59.1 | 60.1
13 | C[C@]12O[C@H](C[C@]1(O)CO)n1c3ccccc3c3c4c(c5c6ccccc6n2c5c31)CNC4=O [Lestaurtinib] + NC1(c2ccc(-c3nc4ccn5c(=O)[nH]nc5c4cc3-c3ccccc3)cc2)CCC1 [MK2206] (first compound 0.02 µM, partner dose 2 µM) | 50 | 55.9 | 99.2
14 | Cn1cc(C2=C(c3cn(C4CCN(Cc5ccccn5)CC4)c4ccccc34)C(=O)NC2=O)c2ccccc21 [Enzastaurin] + Cn1c(=O)n(-c2ccc(C(C)(C)C#N)cc2)c2c3cc(-c4cnc5ccccc5c4)ccc3ncc21 [NVP-BEZ235] (first compound 4 µM, partner dose 0.02 µM) | 79.5 | 74.1 | 109
15 | Cn1cc(C2=C(c3cn(C4CCN(Cc5ccccn5)CC4)c4ccccc34)C(=O)NC2=O)c2ccccc21 [Enzastaurin] + Cc1ccc(NC(=O)c2cccc(N(C)C)c2)cc1NC(=O)c1ccc(O)cc1 [ZM336372] (first compound 4 µM, partner dose 10 µM) | 50.1 | 89.7 | 105
16 | C[C@]12O[C@H](C[C@]1(O)CO)n1c3ccccc3c3c4c(c5c6ccccc6n2c5c31)CNC4=O [Lestaurtinib] + CNC(=O)c1cc(Oc2ccc(NC(=O)Nc3ccc(Cl)c(C(F)(F)F)c3)cc2)ccn1 [sorafenib] (first compound 0.02 µM, partner dose 2 µM) | 70.9 | 121 | 164
17 | N.N.[Cl][Pt][Cl] [cisplatin] + COc1cc2c(Oc3ccc4[nH]c(C)cc4c3F)ncnc2cc1OCCCN1CCCC1 [cediranib] (first compound 8 µM, partner dose 2 µM) | 71.2 | 84.8 | 105
18 | C[C@]12O[C@H](C[C@]1(O)CO)n1c3ccccc3c3c4c(c5c6ccccc6n2c5c31)CNC4=O [Lestaurtinib] + Nc1ccn([C@@H]2O[C@H](CO)[C@@H](O)C2(F)F)c(=O)n1 [gemcitabine] (first compound 0.02 µM, partner dose 0.002 µM) | 56.2 | 41 | 105
19 | N.N.[Cl][Pt][Cl] [cisplatin] + O=C(O)[C@@H]1[O][Sb](=[O])([O][Sb]2(=[O])[O][C@H]([C@H](O)CO)[C@H](O)[C@H](C(=O)O)[O]2)[O][C@H]([C@H](O)CO)[C@@H]1O [stibogluconate] (first compound 8 µM, partner dose 10 µM) | 84.5 | 91.8 | 99.7
20 | N.N.[Cl][Pt][Cl] [cisplatin] + C=CCn1c(=O)c2cnc(Nc3ccc(N4CCN(C)CC4)cc3)nc2n1-c1cccc(C(C)(C)O)n1 [MK1775] (first compound 8 µM, partner dose 0.1 µM) | 46.9 | 77.5 | 47.4
21 | N.N.[Cl][Pt][Cl] [cisplatin] + Cn1c(Nc2ccc(C(F)(F)F)cc2)nc2cc(Oc3ccnc(-c4ncc(C(F)(F)F)[nH]4)c3)ccc21 [CHIR265] (first compound 8 µM, partner dose 0.4 µM) | 87.2 | 93.6 | 88.6
22 | N.N.[Cl][Pt][Cl] [cisplatin] + C[C@@H](Oc1cc(-c2cnn(C3CCNCC3)c2)cnc1N)c1c(Cl)ccc(F)c1Cl [Crizotinib] (first compound 8 µM, partner dose 1 µM) | 68.6 | 74.9 | 105
23 | Cn1cc(C2=C(c3cn(C4CCN(Cc5ccccn5)CC4)c4ccccc34)C(=O)NC2=O)c2ccccc21 [Enzastaurin] + COc1cc(Nc2ncc(F)c(Nc3ccc4c(n3)NC(=O)C(C)(C)O4)n2)cc(OC)c1OC [Tamatinib] (first compound 4 µM, partner dose 2 µM) | 20.1 | 74.2 | 90.7
24 | N.N.[Cl][Pt][Cl] [cisplatin] + CC1(C)NC(=O)N(c2ccc([N+](=O)[O-])c(C(F)(F)F)c2)C1=O [nilutamide] (first compound 8 µM, partner dose 5 µM) | 76.6 | 80.6 | 89.7
25 | N.N.[Cl][Pt][Cl] [cisplatin] + OCCn1cc(-c2cnc3nnn(Cc4ccc5ncccc5c4)c3n2)cn1 [PF04217903] (first compound 8 µM, partner dose 5 µM) | 87.2 | 118 | 87
26 | C[C@]12O[C@H](C[C@]1(O)CO)n1c3ccccc3c3c4c(c5c6ccccc6n2c5c31)CNC4=O [Lestaurtinib] + O=C(O)[C@@H]1[O][Sb](=[O])([O][Sb]2(=[O])[O][C@H]([C@H](O)CO)[C@H](O)[C@H](C(=O)O)[O]2)[O][C@H]([C@H](O)CO)[C@@H]1O [stibogluconate] (first compound 0.02 µM, partner dose 10 µM) | 80.8 | 93 | 114
27 | C[C@]12O[C@H](C[C@]1(O)CO)n1c3ccccc3c3c4c(c5c6ccccc6n2c5c31)CNC4=O [Lestaurtinib] + Cc1cc(Nc2cc(N3CCN(C)CC3)nc(/C=C/c3ccccc3)n2)n[nH]1 [ENMD2076] (first compound 0.02 µM, partner dose 0.2 µM) | 68 | 73.3 | 100
